Assay [1] has as its target T1, Strep-tagged CDAN1 (ST-CDAN1), wildtype (human, UniProt Q8IWY9 1-1227).
T1 construct: Codanin-1 (CDAN1), human, 1227 residues; cDNA from Horizon Discovery/Dharmacon, its point mutation S421F corrected; same construct used in Expi293 and in Flp-In 293 T-REx cells; dimer by SEC-MALS and cryo-EM; also called Strep-CDAN1; WT CDAN1; source: Expi293, transiently transfected, in lysate and purified in complexes (anti-FLAG, Strep-Tactin); Flp-In 293 T-REx, transiently transfected, in …
T1 sequence: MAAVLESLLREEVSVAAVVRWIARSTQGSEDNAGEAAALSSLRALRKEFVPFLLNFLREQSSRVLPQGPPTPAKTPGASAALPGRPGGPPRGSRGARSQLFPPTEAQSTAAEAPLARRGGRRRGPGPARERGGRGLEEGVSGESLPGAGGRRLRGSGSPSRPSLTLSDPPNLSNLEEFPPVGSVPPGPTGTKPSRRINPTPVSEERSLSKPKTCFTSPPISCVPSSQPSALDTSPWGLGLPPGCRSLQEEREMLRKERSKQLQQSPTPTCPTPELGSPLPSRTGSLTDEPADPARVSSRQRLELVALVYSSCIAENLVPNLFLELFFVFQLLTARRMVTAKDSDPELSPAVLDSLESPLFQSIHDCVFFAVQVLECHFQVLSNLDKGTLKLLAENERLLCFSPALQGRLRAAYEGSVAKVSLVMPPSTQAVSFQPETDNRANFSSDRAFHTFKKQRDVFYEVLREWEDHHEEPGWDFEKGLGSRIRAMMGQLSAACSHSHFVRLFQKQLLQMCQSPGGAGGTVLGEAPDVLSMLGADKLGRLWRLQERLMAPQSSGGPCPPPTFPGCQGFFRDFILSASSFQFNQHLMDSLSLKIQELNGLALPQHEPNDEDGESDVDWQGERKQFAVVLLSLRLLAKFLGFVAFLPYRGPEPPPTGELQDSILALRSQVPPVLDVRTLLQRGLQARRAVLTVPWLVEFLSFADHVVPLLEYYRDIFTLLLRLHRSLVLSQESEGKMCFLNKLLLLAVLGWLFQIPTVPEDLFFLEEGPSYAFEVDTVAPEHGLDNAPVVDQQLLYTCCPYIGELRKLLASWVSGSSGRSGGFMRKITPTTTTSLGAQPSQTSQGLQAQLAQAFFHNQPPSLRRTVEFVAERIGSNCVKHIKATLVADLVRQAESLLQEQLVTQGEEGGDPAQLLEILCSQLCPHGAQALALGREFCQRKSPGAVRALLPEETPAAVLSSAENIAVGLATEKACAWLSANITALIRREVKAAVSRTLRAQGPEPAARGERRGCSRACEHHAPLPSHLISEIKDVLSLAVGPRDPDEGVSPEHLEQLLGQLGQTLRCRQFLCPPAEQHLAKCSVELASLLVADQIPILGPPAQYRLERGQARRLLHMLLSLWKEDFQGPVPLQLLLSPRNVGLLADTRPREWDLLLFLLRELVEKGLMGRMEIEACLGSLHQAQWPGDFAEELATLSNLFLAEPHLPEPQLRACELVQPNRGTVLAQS
Put plainly: pull-down; Strep-Tactin pulldown of ST-CDAN1 variants co-transfected with FLAG-tagged ASF1A or ASF1B variants in Flp-In 293 T-REx cells; immunoblotting; IP buffer with 1% Triton X-100, 1 hr at 4 °C. In general terms: A western blot detects proteins with antibodies after separation by electrophoresis.

Chains of the proteins cited; added tags and fusions are not shown. Lines headed by an entry give the natural chain unless they say otherwise; changes in a name come on top. A line that says so, or that is headed by a name, gives the form on record, which may keep a tag or linker.
UniProt Q9Y294: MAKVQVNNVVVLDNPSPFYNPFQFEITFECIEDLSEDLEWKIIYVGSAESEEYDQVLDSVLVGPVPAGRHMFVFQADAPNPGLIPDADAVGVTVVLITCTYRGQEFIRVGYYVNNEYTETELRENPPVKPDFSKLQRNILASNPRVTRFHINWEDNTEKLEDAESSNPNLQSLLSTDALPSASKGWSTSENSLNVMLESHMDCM
FLAG-ASF1A N > B (ASF1A with the NTD of ASF1B) (Q9Y294, form named): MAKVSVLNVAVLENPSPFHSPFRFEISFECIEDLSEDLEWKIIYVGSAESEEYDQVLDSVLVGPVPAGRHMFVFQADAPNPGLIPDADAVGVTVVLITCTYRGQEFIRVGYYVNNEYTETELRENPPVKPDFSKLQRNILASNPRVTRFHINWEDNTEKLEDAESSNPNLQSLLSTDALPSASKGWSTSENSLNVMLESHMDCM
UniProt Q9NVP2: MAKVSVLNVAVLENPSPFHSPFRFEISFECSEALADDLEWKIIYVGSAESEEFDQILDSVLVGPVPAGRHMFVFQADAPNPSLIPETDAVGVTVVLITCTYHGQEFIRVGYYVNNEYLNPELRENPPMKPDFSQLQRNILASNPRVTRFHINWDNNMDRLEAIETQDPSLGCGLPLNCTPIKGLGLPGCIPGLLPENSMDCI
FLAG-ASF1B N > A (ASF1B with the NTD of ASF1A) (Q9NVP2, form named): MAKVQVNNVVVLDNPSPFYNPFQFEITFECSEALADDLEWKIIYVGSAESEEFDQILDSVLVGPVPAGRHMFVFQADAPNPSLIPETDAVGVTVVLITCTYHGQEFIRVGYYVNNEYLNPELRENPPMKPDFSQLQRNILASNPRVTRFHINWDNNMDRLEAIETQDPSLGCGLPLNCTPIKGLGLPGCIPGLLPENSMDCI

Assay [2] deals with T2, Strep-CDAN1 BDA2* (S194A/R195A/R196A) (human) (UniProt Q8IWY9).
T2 sequence: T1 sequence with S194A, R195A, R196A
Described as above.

Our source for the binding values is article PMC11911400, “Mechanism of ASF1 engagement by CDAN1” (Nature Communications, 2025).

Residue numbers refer to the chain shown, from its start. Results are given in words; binding and its absence hold for the method and conditions named. In cells and extracts the contact can be indirect. Some results given as binding are weak or reduced against the parent protein; the word gives no strength. For some of these results: Where a sequence is shown, tags or fusion partners need not be part of it.

As to “FLAG-ASF1A N > B (ASF1A with the NTD of ASF1B) (from UniProt Q9Y294 1-204)”, the binding result in assay [1] and in assay [2] was “binds” each time. “FLAG-ASF1B N > A (ASF1B with the NTD of ASF1A) (from UniProt Q9NVP2 1-202)”: the binding entry in assay [1] and in assay [2] was “binds” in each case. Consider “FLAG-tagged ASF1A (F-ASF1A) (from UniProt Q9Y294 1-204)”, for which, in assay [2], the binding entry is recorded as “binds”.

As to “FLAG-tagged ASF1B (F-ASF1B) (from UniProt Q9NVP2 1-202)”, the binding result in assay [1] and in assay [2] was “binds” throughout.
